± gives the standard deviation of the averaged measurements. In all, about 33,000 sequences were measured (“E-score (dimensionless, -0.5 to 0.5)”: median about -0.046, highest 2% from about 0.36 on). This is one part of the list.
Tested on: T1, SpTbr T-box DNA-binding domain (GST fusion)
T1 sequence: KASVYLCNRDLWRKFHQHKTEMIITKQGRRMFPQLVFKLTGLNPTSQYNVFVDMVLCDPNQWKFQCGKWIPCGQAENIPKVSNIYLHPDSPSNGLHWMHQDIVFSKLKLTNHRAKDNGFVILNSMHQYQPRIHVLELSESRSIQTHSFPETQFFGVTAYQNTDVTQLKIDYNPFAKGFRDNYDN
Test: PBM E-score of 8-mer (E-score (dimensionless, -0.5 to 0.5)); Tbr is Tbrain of the sea star Patiria miniata (Pm) or the sea urchin Strongylocentrotus purpuratus (Sp); higher = stronger binding preference; most listed sequences are background and not binding sites
Settings: the construct has about 5 more residues each side
Method in brief: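 GST-fused Tbr T-box DNA-binding domains (the whole T-box plus about five flanking residues) were expressed in BL21 E. coli at 20 °C and purified by glutathione affinity chromatography. Universal Agilent oligonucleotide arrays were made double-stranded by primer extension, incubated with 200 nM protein in PBS (pH 7.5), then scanned and quantified. Every ungapped 8-mer was scored from probe intensities. The Universal PBM Analysis Suite gave each word an enrichment E-score, averaged over duplicate arrays.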

Going from AAAGCGGG to GACTCATC, the “PBM E-score of 8-mer” value falls from -0.152 ± 0.066 to -0.261 ± 0.016.

First: CAGGTGCC
Second: ACGCACGG
The “PBM E-score of 8-mer” value of the first is higher: 0.388 ± 0.034 for the first, 0.0487 ± 0.026 for the second.

Compared with ATTCGGTA, GTCGATAA is higher in “PBM E-score of 8-mer” value: -0.259 ± 0.0054 for the first, 0.18 ± 0.03 for the second.

Going from AGATGGAC to AAAGAAGT, the “PBM E-score of 8-mer” value rises from -0.205 ± 0.039 to 0.0111 ± 0.089.

First: ACTGAGCA
Second: CAACTTGA
The “PBM E-score of 8-mer” value of the first is lower: -0.0925 ± 0.081 for the first, 0.123 ± 0.077 for the second.

Compared with ATGGGGGA, GAAGATTA is higher in “PBM E-score of 8-mer” value: -0.214 ± 0.037 for the first, -0.0119 ± 0.017 for the second.

Going from AACGAATT to TCATCACA, the “PBM E-score of 8-mer” value rises from -0.00591 ± 0.12 to 0.3345 ± 0.0029.

ACACAGCT and TAGGTGCA are within error of each other in “PBM E-score of 8-mer” value: 0.167 ± 0.058 for the first, 0.12 ± 0.033 for the second.

Compared with CCAACAAA, AAACCTAA is lower in “PBM E-score of 8-mer” value: 0.137 ± 0.064 for the first, -0.102 ± 0.035 for the second.

First: ACAGGAAG
Second: GAAGAACA
The “PBM E-score of 8-mer” value of the first is higher: -0.0342 ± 0.044 for the first, -0.233 ± 0.015 for the second.

GCTAACCC and CCCAGCAA are within error of each other in “PBM E-score of 8-mer” value: 0.04 ± 0.097 for the first, -0.0103 ± 0.021 for the second.

Going from CGAGAGGA to ATAGCTAG, the “PBM E-score of 8-mer” value falls from 0.1 ± 0.013 to -0.102 ± 0.023.

GTCAAGGA and CATTGCAG are within error of each other in “PBM E-score of 8-mer” value: -0.0692 ± 0.085 for the first, -0.0289 ± 0.057 for the second.

CGACGGTA and AGTTGACC are within error of each other in “PBM E-score of 8-mer” value: -0.0651 ± 0.0018 for the first, -0.106 ± 0.098 for the second.

CCAGAGAC and GATTTCTA are within error of each other in “PBM E-score of 8-mer” value: 0.00323 ± 0.0032 for the first, -0.00464 ± 0.057 for the second.

Compared with ACGAATGG, AATGCGCT is lower in “PBM E-score of 8-mer” value: 0.0767 ± 0.013 for the first, -0.187 ± 0.032 for the second.

First: CAACGCTA
Second: CTTTGGGC
The “PBM E-score of 8-mer” value of the first is higher: 0.0932 ± 0.022 for the first, -0.279 ± 0.041 for the second.

Compared with CGCAACCA, ATTCGGAC is lower in “PBM E-score of 8-mer” value: -0.00136 ± 0.0027 for the first, -0.275 ± 0.059 for the second.

Going from GGCACCAA to GATGTAGA, the “PBM E-score of 8-mer” value falls from 0.163 ± 0.017 to -0.161 ± 0.016.

AACGCAAC and ACTAATAT are within error of each other in “PBM E-score of 8-mer” value: -0.0802 ± 0.023 for the first, -0.126 ± 0.064 for the second.

First: ATCGGTCG
Second: GGTCTACA
The “PBM E-score of 8-mer” value of the first is higher: 0.02 ± 0.022 for the first, -0.0571 ± 0.025 for the second.

AAAGCTCG and GTAAATGA are within error of each other in “PBM E-score of 8-mer” value: -0.183 ± 0.062 for the first, -0.141 ± 0.0089 for the second.

Compared with AATTACAT, CGGGACAA is lower in “PBM E-score of 8-mer” value: -0.013 ± 0.13 for the first, -0.225 ± 0.06 for the second.

First: CATATGGC
Second: ACATGAAA
The “PBM E-score of 8-mer” value of the first is lower: -0.221 ± 0.019 for the first, -0.0431 ± 0.11 for the second.

Going from CAGATGGC to GGTCACTA, the “PBM E-score of 8-mer” value rises from -0.0733 ± 0.047 to 0.126 ± 0.039.

First: GTTGGTGA
Second: ATTTGAGG
The “PBM E-score of 8-mer” value of the first is higher: 0.115 ± 0.0023 for the first, -0.158 ± 0.12 for the second.

CAGGGAAC and AAGAACCA are within error of each other in “PBM E-score of 8-mer” value: -0.0919 ± 0.034 for the first, -0.116 ± 0.0052 for the second.

Going from AATACGCT to AATTCAGT, the “PBM E-score of 8-mer” value falls from -0.02 ± 0.051 to -0.0889 ± 0.013.

AAATGTGC and TGCGACCA are within error of each other in “PBM E-score of 8-mer” value: 0.151 ± 0.076 for the first, 0.201 ± 0.054 for the second.

GGCTCCGA and CGTGCAGA are within error of each other in “PBM E-score of 8-mer” value: -0.15 ± 0.066 for the first, -0.165 ± 0.063 for the second.

Compared with CCGTGTGA, TCTCGGAA is lower in “PBM E-score of 8-mer” value: 0.381 ± 0.017 for the first, -0.22 ± 0.013 for the second.

AATTAAGG and CATTCGAG are within error of each other in “PBM E-score of 8-mer” value: -0.139 ± 0.011 for the first, -0.142 ± 0.034 for the second.

First: AGCCAAAG
Second: AGCGTGCG
The “PBM E-score of 8-mer” value of the first is lower: -0.209 ± 0.037 for the first, 0.327 ± 0.052 for the second.

CCATATAA and AATACGAA are within error of each other in “PBM E-score of 8-mer” value: -0.221 ± 0.022 for the first, -0.203 ± 0.023 for the second.

Going from CATTTAGC to GTAGAAGA, the “PBM E-score of 8-mer” value falls from -0.0123 ± 0.032 to -0.319 ± 0.029.

First: CCGCCCTA
Second: GAAGAGAC
The “PBM E-score of 8-mer” value of the first is higher: -0.2293 ± 0.00091 for the first, -0.292 ± 0.031 for the second.

Going from AACAGCTA to CACAACCC, the “PBM E-score of 8-mer” value falls from 0.232 ± 0.018 to 0.176 ± 0.013.

First: CACATAAG
Second: GCAAAGGC
The “PBM E-score of 8-mer” value of the first is higher: 0.144 ± 0.027 for the first, -0.169 ± 0.073 for the second.

Compared with CACCGGGA, AGTATACT is lower in “PBM E-score of 8-mer” value: 0.142 ± 0.033 for the first, -0.224 ± 0.08 for the second.

Compared with ATTAGAAA, ACGCCGAT is higher in “PBM E-score of 8-mer” value: -0.188 ± 0.048 for the first, -0.0232 ± 0.022 for the second.

AGCCAACT and GAGCGTAA are within error of each other in “PBM E-score of 8-mer” value: -0.173 ± 0.045 for the first, -0.197 ± 0.051 for the second.

Compared with GGAAGACC, AACTGATT is lower in “PBM E-score of 8-mer” value: -0.0376 ± 0.01 for the first, -0.227 ± 0.019 for the second.

Going from AGCGTAAC to GACGAGTC, the “PBM E-score of 8-mer” value falls from -0.00288 ± 0.013 to -0.101 ± 0.024.

Compared with CCGTTACG, AAAGTTGG is higher in “PBM E-score of 8-mer” value: -0.121 ± 0.042 for the first, -0.0293 ± 0.026 for the second.

Going from TAATGATA to GGTGCCAC, the “PBM E-score of 8-mer” value rises from -0.111 ± 0.0097 to 0.368 ± 0.0043.

Going from AAAATGAT to CTTTCCCA, the “PBM E-score of 8-mer” value rises from -0.0776 ± 0.058 to 0.0635 ± 0.052.

First: ACGCTCTA
Second: CGCTGCGA
The “PBM E-score of 8-mer” value of the first is lower: -0.069 ± 0.031 for the first, 0.119 ± 0.035 for the second.

Reference: the supplement of paper PMC4166925
